# Experimental data taken from the supplement of paper PMC8728848.
# The list shows a part of the results.
# B1: B725 (Bifidobacterium sp) (protein)
# chain: MNNTTRAVIATAAIGALLIPLAGCGNTTTSSGKTELTVWSWDASIDRAAKSFMKANPDITVKVSNVGSTEETYTALNNAAQAGSGLPDVTLIEYLAIPQFVHSDTLMDLSKVYNTAKLKDTFTPGTWNSVNINGGLYAMPADSGPMAYFYDKDVFDKAGISEPPTTWDEFYEDAKKIRATGSYITSDSGDAGLFNAMMWAMGGHAYKLNDDKLTINIAKDKGAQRFMDLWQKMRDEDLIDVHTKTWTDDWMKSLGDGSIASLISGAWMANNLLQGVPQATGKFRVALLPTIDGTPINGEYGGSGLAITKKIPDGKLDAAKKFVEYVTTNDEGIDARVSNGSFPATTKTLNQKDFLAKTTLRNTDGSDNEFFGGQKYNEIFSQAAKDVTGKWEFLPFEPYARSVYNDNMGSFFAGKTSFRTAADNWQKALKDYAKDQGFTVQ
# How the values were obtained:
# Test in all cases: glycan array binding signal (z-score within array); higher = stronger binding
# Details in all cases: glycan notation: IUPAC condensed, linker removed
# [1] = molecular target: Fuc(a1-2)Gal(b1-4)GlcNAc(b1-3)Gal(b1-4)GlcNAc(b1-3)Gal(b1-4)GlcNAc
# Summary of the method: (§1)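 The binding signal is a Z-score computed within each array and averaged over linkers. Arrays of the same protein sequence at different concentrations or buffers were also averaged together. Data originate from 3228 arrays in the Consortium for Functional Glycomics database, kept only where the protein sequence was available.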
# [2] = molecular target: Fuc(a1-2)Gal(b1-4)GlcNAc(b1-3)GalNAc
# Summary of the method: as §1
# [3] = molecular target: Fuc(a1-2)Gal(b1-4)GlcNAc(b1-3)[Fuc(a1-2)Gal(b1-4)GlcNAc(b1-6)]GalNAc
# Summary of the method: as §1
# [4] = molecular target: Fuc(a1-2)Gal(b1-4)GlcNAc(b1-3)[Fuc(a1-3)[Gal(b1-4)]GlcNAc(b1-6)]Gal(b1-4)Glc
# Summary of the method: as §1
# [5] = molecular target: Fuc(a1-2)Gal(b1-4)GlcNAc(b1-6)GalNAc
# Summary of the method: as §1
# [6] = molecular target: Fuc(a1-2)Gal(b1-4)GlcNAc6S
# Summary of the method: as §1
# [7] = molecular target: Fuc(a1-2)Gal(b1-4)[Fuc(a1-3)]GlcNAc
# Summary of the method: as §1
# [8] = molecular target: Fuc(a1-2)Gal(b1-4)[Fuc(a1-3)]GlcNAc(b1-2)Man(a1-3)[Fuc(a1-2)Gal(b1-4)[Fuc(a1-3)]GlcNAc(b1-2)Man(a1-6)]Man(b1-4)GlcNAc(b1-4)[Fuc(a1-6)]GlcNAc
# Summary of the method: as §1
# [9] = molecular target: Fuc(a1-2)Gal(b1-4)[Fuc(a1-3)]GlcNAc(b1-2)[Fuc(a1-2)Gal(b1-4)[Fuc(a1-3)]GlcNAc(b1-4)]Man(a1-3)[Fuc(a1-2)Gal(b1-4)[Fuc(a1-3)]GlcNAc(b1-2)Man(a1-6)]Man(b1-4)GlcNAc(b1-4)GlcNAc
# Summary of the method: as §1
# [10] = molecular target: Fuc(a1-2)Gal(b1-4)[Fuc(a1-3)]GlcNAc(b1-3)Gal(b1-4)[Fuc(a1-3)]GlcNAc
# Summary of the method: as §1
# [11] = molecular target: Fuc(a1-2)Gal(b1-4)[Fuc(a1-3)]GlcNAc(b1-3)Gal(b1-4)[Fuc(a1-3)]GlcNAc(b1-3)Gal(b1-4)[Fuc(a1-3)]GlcNAc
# Summary of the method: as §1
# [12] = molecular target: Fuc(a1-2)Gal(b1-4)[Fuc(a1-3)]GlcNAc(b1-3)GalNAc
# Summary of the method: as §1
# [13] = molecular target: Fuc(a1-2)Gal(b1-4)[Fuc(a1-3)]GlcNAc(b1-3)[Neu5Ac(a2-6)Gal(b1-4)GlcNAc(b1-6)]Gal(b1-4)Glc
# Summary of the method: as §1
# [14] = molecular target: Fuc(a1-2)Gal3S(b1-4)GlcNAc
# Summary of the method: as §1
# [15] = molecular target: Fuc(a1-2)Gal6S(b1-3)GlcNAc
# Summary of the method: as §1
# [16] = molecular target: Fuc(a1-2)Gal6S(b1-3)GlcNAc6S
# Summary of the method: as §1
# [17] = molecular target: Fuc(a1-2)Gal6S(b1-4)Glc
# Summary of the method: as §1
# [18] = molecular target: Fuc(a1-2)Gal6S(b1-4)Glc6S
# Summary of the method: as §1
# [19] = molecular target: Fuc(a1-2)[Gal(a1-3)]Gal
# Summary of the method: as §1
# [20] = molecular target: Fuc(a1-2)[Gal(a1-3)]Gal(b1-3)GalNAc
# Summary of the method: as §1
# [21] = molecular target: Fuc(a1-2)[Gal(a1-3)]Gal(b1-3)GalNAc(b1-3)Gal(a1-4)Gal(b1-4)Glc
# Summary of the method: as §1
# [22] = molecular target: Fuc(a1-2)[Gal(a1-3)]Gal(b1-3)GlcNAc
# Summary of the method: as §1
# [23] = molecular target: Fuc(a1-2)[Gal(a1-3)]Gal(b1-3)GlcNAc(b1-2)Man(a1-3)[Fuc(a1-2)[Gal(a1-3)]Gal(b1-3)GlcNAc(b1-2)Man(a1-6)]Man(b1-4)GlcNAc(b1-4)GlcNAc
# Summary of the method: as §1
# [24] = molecular target: Fuc(a1-2)[Gal(a1-3)]Gal(b1-3)GlcNAc(b1-2)Man(a1-3)[Fuc(a1-2)[Gal(a1-3)]Gal(b1-3)GlcNAc(b1-2)Man(a1-6)]Man(b1-4)GlcNAc(b1-4)[Fuc(a1-6)]GlcNAc
# Summary of the method: as §1
# [25] = molecular target: Fuc(a1-2)[Gal(a1-3)]Gal(b1-3)GlcNAc(b1-3)GalNAc
# Summary of the method: as §1
# [26] = molecular target: Fuc(a1-2)[Gal(a1-3)]Gal(b1-3)GlcNAc(b1-6)GalNAc
# Summary of the method: as §1
# [27] = molecular target: Fuc(a1-2)[Gal(a1-3)]Gal(b1-4)Glc
# Summary of the method: as §1
# [28] = molecular target: Fuc(a1-2)[Gal(a1-3)]Gal(b1-4)GlcNAc
# Summary of the method: as §1
# [29] = molecular target: Fuc(a1-2)[Gal(a1-3)]Gal(b1-4)GlcNAc(b1-2)Man
# Summary of the method: as §1
# [30] = molecular target: Fuc(a1-2)[Gal(a1-3)]Gal(b1-4)GlcNAc(b1-2)Man(a1-3)[Fuc(a1-2)[Gal(a1-3)]Gal(b1-4)GlcNAc(b1-2)Man(a1-6)]Man(b1-4)GlcNAc(b1-4)GlcNAc
# Summary of the method: as §1
# [31] = molecular target: Fuc(a1-2)[Gal(a1-3)]Gal(b1-4)GlcNAc(b1-2)Man(a1-3)[Fuc(a1-2)[Gal(a1-3)]Gal(b1-4)GlcNAc(b1-2)Man(a1-6)]Man(b1-4)GlcNAc(b1-4)[Fuc(a1-6)]GlcNAc
# Summary of the method: as §1
# [32] = molecular target: Fuc(a1-2)[Gal(a1-3)]Gal(b1-4)GlcNAc(b1-3)GalNAc
# Summary of the method: as §1
# [33] = molecular target: Fuc(a1-2)[Gal(a1-3)]Gal(b1-4)GlcNAc(b1-3)[Fuc(a1-2)[Gal(a1-3)]Gal(b1-4)GlcNAc(b1-6)]GalNAc
# Summary of the method: as §1
# [34] = molecular target: Fuc(a1-2)[Gal(a1-3)]Gal(b1-4)GlcNAc(b1-6)GalNAc
# Summary of the method: as §1
# [35] = molecular target: Fuc(a1-2)[Gal(a1-3)]Gal(b1-4)[Fuc(a1-3)]Glc
# Summary of the method: as §1
# [36] = molecular target: Fuc(a1-2)[Gal(a1-3)]Gal(b1-4)[Fuc(a1-3)]GlcNAc
# Summary of the method: as §1
# [37] = molecular target: Fuc(a1-2)[Gal(a1-3)]Gal(b1-4)[Fuc(a1-3)]GlcNAc(b1-3)GalNAc
# Summary of the method: as §1
binder,measurement,setting,value
B1,glycan array binding signal (z-score),[1],-0.08
same,glycan array binding signal (z-score),[2],-0.185
same,glycan array binding signal (z-score),[3],-0.196
same,glycan array binding signal (z-score),[4],-0.214
same,glycan array binding signal (z-score),[5],-0.219
same,glycan array binding signal (z-score),[6],-0.206
same,glycan array binding signal (z-score),[7],-0.236
same,glycan array binding signal (z-score),[8],-0.214
same,glycan array binding signal (z-score),[9],-0.197
same,glycan array binding signal (z-score),[10],-0.216
same,glycan array binding signal (z-score),[11],-0.201
same,glycan array binding signal (z-score),[12],-0.201
same,glycan array binding signal (z-score),[13],-0.217
same,glycan array binding signal (z-score),[14],-0.229
same,glycan array binding signal (z-score),[15],-0.251
same,glycan array binding signal (z-score),[16],-0.198
same,glycan array binding signal (z-score),[17],-0.199
same,glycan array binding signal (z-score),[18],-0.219
same,glycan array binding signal (z-score),[19],-0.222
same,glycan array binding signal (z-score),[20],-0.213
same,glycan array binding signal (z-score),[21],-0.238
same,glycan array binding signal (z-score),[22],-0.219
same,glycan array binding signal (z-score),[23],-0.198
same,glycan array binding signal (z-score),[24],-0.179
same,glycan array binding signal (z-score),[25],-0.233
same,glycan array binding signal (z-score),[26],-0.203
same,glycan array binding signal (z-score),[27],-0.231
same,glycan array binding signal (z-score),[28],-0.232
same,glycan array binding signal (z-score),[29],-0.216
same,glycan array binding signal (z-score),[30],-0.228
same,glycan array binding signal (z-score),[31],-0.188
same,glycan array binding signal (z-score),[32],-0.222
same,glycan array binding signal (z-score),[33],-0.159
same,glycan array binding signal (z-score),[34],-0.235
same,glycan array binding signal (z-score),[35],-0.22
same,glycan array binding signal (z-score),[36],-0.22
same,glycan array binding signal (z-score),[37],-0.208
